# Experimental data reported in PubChem BioAssay AID504832 (National Center for Advancing Translational Sciences (NCATS), 2011).
# Where “and” joins values, the source holds several entries; their conditions need not be identical. Equal entries are not always repeated. Hit rate of the full screen: of about 310,000 compounds, about 18,000 (5.8%) were called active. This list was built around the results that the source calls inconclusive (neither active nor inactive); the mix of calls is not that of the screen. Calls come from the whole dose curve; as a rule, active = well fitted inhibition curve with a large enough effect; inconclusive = small, poorly fitted or top-dose-only effect, or another doubt; inactive = no such curve, though single readings can be large or run the other way. Potencies of inconclusive entries are doubtful fits and often do not repeat.
# Test: Primary qHTS for delayed death inhibitors of the malarial parasite plastid, 48 hour incubation
# Conditions: P. falciparum luciferase growth in erythrocytes; series mostly up to 28.7 µM
# Summary of the method: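 Firefly luciferase activity from engineered P. falciparum reports growth; inhibitors lower the luminescent signal. Cultures contained 2% hematocrit erythrocytes at 0.1% final parasitemia.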
# Potency is the fitted concentration of half-maximal effect; tags give direction and shape of the fitted curve.
row,SMILES,Potency
1,COc1ccc(-c2cc(C(=O)N(C)Cc3ccccc3)c3ccccc3n2)cc1,"inconclusive: 13.1 µM [inhibitor, single point]"
2,CN1CCC=C(C(=O)N2c3ccccc3Sc3ccc(Cl)cc32)C1,"inconclusive: 10.4 µM [inhibitor, single point]"
3,Cc1cccc(-n2c(SCC(=O)N(C)C3CCS(=O)(=O)C3)nc3ccccc3c2=O)c1C (stereo not drawn),"inconclusive: 18.5 µM [inhibitor, single point]"
4,CC(C)c1ccc(C2(O)C(=O)Nc3cc(Br)ccc32)c(O)c1 (stereo not drawn),active: 13.1 µM
5,O=C(NCC(=O)N(c1cccnc1)C(C(=O)NC1CCCC1)c1cccs1)c1ccco1 (stereo not drawn),"inconclusive: 0.522 µM [inhibitor, full curve, poor fit]"
6,CCn1c(SCC(=O)OC)nnc1-c1c[nH]c2ccccc12,inactive
7,CCOC(=O)C(CC)(CCC(=O)OC)c1csc(Nc2ccccc2O)n1 (stereo not drawn),"inconclusive: 9.28 µM [inhibitor, single point]"
8,CC(=O)c1ccc(N(CC(=O)NCc2ccc3c(c2)OCO3)C(=O)c2csnn2)cc1,"inconclusive: 10.4 µM [inhibitor, single point]"
9,O=C(COc1ccc(Br)cc1Cl)NNC(=O)c1ccccc1,inactive
10,CCOC(=O)c1sc2c(c1C)c(=O)c(C(=O)OCC)cn2CC,active: 2.33 µM
11,CC(C)(C)NC(=O)CN(C(=O)CCC(=O)Nc1nccs1)c1cccc(C(F)(F)F)c1,"inconclusive: 1.04 µM [inhibitor, partial curve, poor fit]"
12,COc1cc2c(cc1O)CC1c3c(cc(O)c(OC)c3-2)CCN1C (stereo not drawn),"inactive and inconclusive: 16.5 µM [inhibitor, single point]"
13,C(=N\Nc1nc(Nc2ccccc2)nc(Nc2ccccc2)n1)/c1cccnc1,active: 3.29 µM
14,O=C(Nc1ccccc1)OC[C@H](CN1CCCCC1)OC(=O)Nc1ccccc1,inactive
15,Cc1cc(C)c(-n2c(SCCS(=O)(=O)c3ccc(F)cc3)n[nH]c2=O)c(C)c1,"inconclusive: 0.104 µM [inhibitor, partial curve, poor fit]"
16,O=C(Nc1ccnn1C1CCN(C(=O)c2cccc(Cl)c2)CC1)C1CC1,inactive
17,Cc1oc(C(=O)O)cc1COc1cccc2ccccc12,inactive
18,CCCCN(CCCC)CC(O)COc1ccccc1C(=O)Nc1ccccc1 (stereo not drawn),"inconclusive: 0.117 µM [inhibitor, full curve]"
19,Cc1cccc2cc(CN(CCCN(C)C)C(=S)NCCc3ccccc3)c(=O)[nH]c12,"inconclusive: 13.1 µM [inhibitor, single point]"
20,Cc1ccc2nsnc2c1NC(=O)Cc1ccc(Cl)cc1,"inconclusive: 16.5 µM [inhibitor, partial curve, poor fit]"
21,Cc1ccc(-c2nc3c(c(=O)c4ccccc4n3C)c(=O)n2-c2ccc(F)cc2)cc1,active: 8.28 µM
22,CC(C)CCn1nc(C(=O)Nc2nc3c(s2)CCCC3)c2ccccc2c1=O,active: 10.4 µM
23,CCc1ccc(OC)c(S(=O)(=O)NCc2cccs2)c1,"inconclusive: 11.7 µM [inhibitor, single point]"

row,SMILES,Potency
1,CCC(C)(C)NC(=O)C(c1ccncc1)N(C(=O)Cn1nnc2ccccc21)c1cc2c(cc1C(C)=O)OCO2 (stereo not drawn),"inconclusive: 23.3 µM [inhibitor, partial curve, poor fit]"
2,Cc1ccc(N(CC(=O)Nc2cccc(N(C)S(C)(=O)=O)c2)S(C)(=O)=O)cc1,inactive
3,CCN=C(Nc1cccc(F)c1)SC1CC(=O)N(c2ccc(OC)cc2)C1=O (stereo not drawn),"inconclusive: 18.5 µM [inhibitor, single point]"
4,Cc1nc(SCc2nnc(-c3ccc(Cl)cc3)o2)c2c3c(sc2n1)CCC3,inactive
5,COc1cc(/C=C/C(=O)O)cc(S(=O)(=O)Nc2ccc3nc(SC)sc3c2)c1OC,inactive
6,S=C(NCc1ccncc1)Nc1cccc(Cl)c1,"inconclusive: 18.5 µM [inhibitor, partial curve, poor fit]"
7,Cc1ccc(NC(=O)c2cccc(OCc3c(C)noc3C)c2)cc1S(=O)(=O)Nc1ccccc1Cl,inactive
8,CC1(C)CC(=O)C2=C(C1)N(Cc1ccco1)C(=O)C2(NC(=O)C1CCCCC1)C(F)(F)F (stereo not drawn),"inconclusive: 10.4 µM [inhibitor, single point]"
9,Cc1cccn2c(=O)c(/C=C(\C#N)C(=O)NC3CCS(=O)(=O)C3)c(Oc3ccc(F)cc3)nc12 (stereo not drawn),"inconclusive: 18.5 µM [inhibitor, single point]"
10,CCOc1ccc(N2C(=O)CC(N3CCN(C(=O)CN4CCCC4)CC3)C2=O)cc1 (stereo not drawn),inactive
11,Cc1cccc(C)c1NC(=O)CN(C)C(=O)COc1cccc2c1OC(C)(C)C2,"inconclusive: 9.28 µM [inhibitor, single point]"
12,CCc1ccc(C(C(=O)NCc2ccc(OC)cc2)N(CCOC)C(=O)Cc2cccs2)cc1 (stereo not drawn),active: 4.15 µM
13,CCOc1ccc(NC(=O)CSc2nccn(-c3ccc4c(c3)OCCO4)c2=O)cc1,"inconclusive: 16.5 µM [inhibitor, single point]"
14,COc1cccc(C2CC(=O)Nc3cc4c(cc32)CCC4)c1 (stereo not drawn),"inconclusive: 11.7 µM [inhibitor, partial curve, poor fit]"
15,O=C(N/N=C/c1cccc(O)c1)c1ccc(NC(=O)c2cccc([N+](=O)[O-])c2)cc1,"inconclusive: 1.17 µM [inhibitor, full curve, poor fit]"
16,c1ccc(-c2cc(-c3nc(-c4cccnc4)no3)c3ccccc3n2)cc1,inactive
17,O=C(Nc1nccs1)c1ccc(COc2ccccc2Br)o1,"inconclusive: 18.5 µM [inhibitor, single point]"
18,Cc1cc(Cl)ccc1C(=O)C1CCCN(C2CCSCC2)C1 (stereo not drawn),inactive
19,COc1ccc(C2=NN(C(=O)CSc3nnc(-c4ccccc4F)o3)C(c3ccco3)C2)cc1 (stereo not drawn),"inconclusive: 0.522 µM [inhibitor, full curve, poor fit]"
20,CC(=O)Nc1nnc(SCC(=O)Nc2nc(C)cs2)s1,inactive
21,CC1CN(c2ncnc3c2c(-c2ccccc2)cn3-c2ccc(F)cc2)CC(C)O1 (stereo not drawn),"inconclusive: 0.0147 µM [inhibitor, full curve, poor fit]"
22,Cc1cccc2c1cnn2C(=O)CCC(=O)N1CCC(C)CC1,inactive
23,COc1ccc(CS(=O)(=O)CC2(O)CCN(C(=O)c3cccc(C(F)(F)F)c3)CC2)cc1,active: 14.7 µM

row,SMILES,Potency
1,Cc1ccc(S(=O)(=O)N2CCC(=O)N(C(COCc3ccc(C(F)(F)F)cc3)C(C)C)CC2)cc1 (stereo not drawn),"inconclusive: 18.5 µM [inhibitor, single point]"
2,O=S(=O)(Nc1cc(S(=O)(=O)N2CCOCC2)ccc1N1CCCC1)c1cccs1,inactive
3,Nc1nc(Nc2cccc(Cl)c2)nc(NCCO)c1[N+](=O)[O-],inactive
4,O=S(=O)(c1cccs1)N1CN(Cc2ccco2)c2nc3ccccc3nc21,"inconclusive: 7.38 µM [inhibitor, partial curve, poor fit]"
5,COc1ccc(/C=N/NC(=O)C2C3CCCCC32C)cc1OC (stereo not drawn),"inconclusive: 13.1 µM [inhibitor, single point]"
6,CC(C)(C)c1ccc(Cn2nnc3c(=O)[nH]c(C4CCCN(C(=O)c5ccco5)C4)nc32)cc1 (stereo not drawn),active: 0.828 µM
7,CCn1c(=O)n(CC)c2cc(N3CCCC3)c(NC(=O)c3c(F)cccc3F)cc21,"inconclusive: 7.38 µM [inhibitor, partial curve]"
8,CC1CCCC(NS(=O)(=O)c2ccc3c(c2)OCCO3)C1C (stereo not drawn),"inconclusive: 5.22 µM [inhibitor, single point]"
9,CC1CCCN(S(=O)(=O)c2ccc(NC(=O)C3CCN(C(=O)c4ccco4)CC3)cc2)C1 (stereo not drawn),inactive
10,O=C(COc1c(Cl)cccc1Cl)Nc1ccccc1N1CCCC1,"inconclusive: 11.7 µM [inhibitor, single point]"
11,CC(C)COP(=O)(c1ccc(N(C)C)cc1)C(O)c1ccccc1 (stereo not drawn),inactive
12,COC(=O)c1cc(Br)c(=O)n(Cc2ccc3c(c2)OCO3)c1,"inconclusive: 11.7 µM [inhibitor, partial curve]"
13,COc1ccc(C(=O)Nc2nnc(SCC(=O)NC3CC3)s2)cc1,inactive
14,CCOc1ccccc1N1CCN(C(=O)C(Sc2ccccc2)c2ccccc2)CC1 (stereo not drawn),"inconclusive: 10.4 µM [inhibitor, single point]"
15,N#CC(c1ccc(Cl)cc1)c1c(Cl)cc(-n2ncc(=O)[nH]c2=O)cc1Cl (stereo not drawn),"inconclusive: 16.9 µM [inhibitor, single point]"
16,O=C(CCc1ccc(O)c(O)c1)N/N=C/c1ccc2c(c1)OCO2,"inconclusive: 18.5 µM [inhibitor, partial curve, poor fit]"
17,CN(C)CCCN(Cc1ccccc1)C(=S)Nc1ccc(SC(F)F)cc1,"inconclusive: 10.4 µM [inhibitor, partial curve, poor fit]"
18,CC(C)(C)c1ccc(OCCC(=O)Nc2cccc(S(=O)(=O)N3CCCC3)c2)cc1,active: 10.4 µM
19,COc1ccc(-c2nn(-c3ccccc3)cc2/C=C\C(=O)Nc2ccc(C(=O)O)cc2)cc1,"inconclusive: 11.7 µM [inhibitor, single point]"
20,CCn1c(SCC(=O)c2c[nH]c3ccccc23)nnc1-c1cccs1,"inconclusive: 20.8 µM [inhibitor, partial curve, poor fit]"
21,Cc1ccc(-c2c(NCCc3ccccc3)c(=O)c2=O)cc1,"inconclusive: 0.828 µM [inhibitor, partial curve, poor fit]"
22,COC(=O)c1c(NC(=O)c2ccccc2)sc(C(=O)c2ccccc2)c1C,"inconclusive: 2.94 µM [inhibitor, full curve, poor fit]"
